Test results: the supplement of paper PMC12217912
Some of the results follow. The full chains were built here from the parent and the listed change. Inactive controls read about 0.05.

B1: TEV protease; numbered along this chain (parent)
chain: MGESLFKGPRDYNPISSSICHLTNESDGHTTSLYGIGFGPFIITNKHLFRRNNGTLVVQSLHGVFKVKDTTTLQQHLVDGRDMIIIRMPKDFPPFPQKLKFREPQREERICLVTTNFQTKSMSSMVSDTSCTFPSGDGIFWKHWIQTKDGQCGSPLVSTRDGFIVGIHSASNFTNTNNYFTSVPKNFMELLTNQEAQQWVSGWRLNADSVLWGGHKVFMVKPEEPFQPVKEATQL

Variants of: B1
Test: raw area under fraction-flipped curve 0-4 h after induction (AUC4h, not background-subtracted), DNA-recorder readout of cleavage of the substrate (dimensionless); higher = more cleavage of the substrate by the protease variant
Conditions: temperature: 34 °C; time window: 0-4 h after rhamnose induction
Experimental: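 In vivo DNA recorder in E. coli TOP10(DE3) ΔrhaA at 34 °C. Each TEVp single-site mutant (parent TEVp 0) is paired with a single-site variant of the 7-mer TEVs (canonical ENLYFQ|S). The substrate sits between flexible linkers in a Bxb1-sfGFP-TEVs-SsrA fusion, so cleavage stabilises Bxb1 and speeds flipping of a recombination array, read by NGS. The value is the raw area under the fraction-flipped curve over 0-4 h after rhamnose induction (AUC4h), with ≥20 reads per time point. It is not background-subtracted; inactive controls average about 0.047.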
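Note: Bxb1 expression induced with 0.2% (w/v) L-rhamnose at OD600 near 0.5, cultures sampled hourly, flipped fraction per protease–substrate barcode pair counted by paired-end Illumina sequencing.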

Variant	area with substrate CNLYFQS	area with substrate DNLYFQS	area with substrate FNLYFQS	area with substrate GNLYFQS	area with substrate HNLYFQS	area with substrate INLYFQS	area with substrate KNLYFQS	area with substrate LNLYFQS	area with substrate MNLYFQS	area with substrate NNLYFQS	area with substrate PNLYFQS	area with substrate QNLYFQS	area with substrate SNLYFQS	area with substrate TNLYFQS	area with substrate VNLYFQS	area with substrate WNLYFQS	area with substrate YNLYFQS	area with substrate RNLYFQS
R106Q	0.0654	0.103	0.0598	0.0559	0.0654	0.081	0.0714	0.0626	0.0614	0.0712	0.0786	0.0649	0.0601	0.0708	0.0646	0.0692	0.047	–
M125D	0.0836	0.0787	0.0574	–	0.072	0.0634	0.0671	0.064	0.06	0.0684	0.0592	0.0486	0.0735	–	0.0706	0.0614	0.0392	0.0883
S123W	0.0712	0.0795	–	0.075	0.0623	0.0674	0.0629	0.064	0.0541	–	0.0666	–	0.0608	0.0718	–	0.0633	0.0595	0.0524
D128S	0.0801	–	–	0.0955	0.062	–	0.0688	0.095	0.0749	–	0.0873	–	0.127	0.0881	0.0786	0.0725	0.0765	–
D128Q	0.0939	0.0909	0.0622	–	0.0756	0.0643	0.0716	0.0578	0.0787	0.0773	0.101	0.124	0.0783	0.0737	0.0713	0.0667	0.0587	–
T132D	0.0655	0.0415	0.0611	0.0477	0.0464	0.0556	0.063	0.0485	0.0628	0.0753	0.0525	0.0521	0.0637	0.0511	0.0611	0.0538	0.0366	–
T132M	0.0645	0.089	–	0.0726	0.0599	0.0636	0.0429	–	–	0.0617	0.0529	–	0.0757	0.0721	0.0627	–	–	0.073
L73V	0.0494	0.0799	0.0609	–	0.068	–	0.0594	0.0588	0.101	–	0.0718	–	–	0.0632	0.0661	0.0732	0.0501	–
I110V	0.0619	0.0761	0.0661	0.0732	–	0.0546	0.0463	0.0676	–	0.067	–	–	0.0705	0.0661	–	0.0583	0.0694	0.0756
T72K	0.0629	0.066	0.06	0.0736	0.0568	0.0604	0.0579	0.068	0.068	0.083	–	–	0.0629	0.0613	0.0562	0.0665	0.0609	–
T72Q	0.077	0.0766	–	0.0773	0.0629	0.0656	–	0.0763	0.078	0.0567	0.0526	–	0.0659	0.0653	0.0676	0.0641	0.0953	–
T72E	0.0696	–	0.0558	–	–	–	0.0669	–	–	–	0.0251	–	0.0601	0.072	–	0.0474	–	–
S124K	0.0778	0.0792	0.0613	0.0725	0.0802	0.0837	0.0575	0.0635	0.0499	0.104	–	–	0.056	0.0653	0.146	0.068	0.0641	–
R102I	0.0472	0.0512	0.0444	0.0465	0.0427	0.0504	0.0414	0.0469	0.0452	0.0528	–	0.0572	0.0514	0.0449	–	0.0516	0.0455	0.0511
R102G	0.0614	0.0363	–	0.0501	0.0478	0.0497	–	0.0293	0.0528	0.0454	0.0557	–	0.0482	0.0443	–	0.0475	0.0543	–
K98W	0.0682	0.072	–	–	0.0601	0.064	–	0.06	0.0717	–	0.0691	–	–	0.049	–	0.076	0.0606	0.0526
L77F	0.0528	0.0568	0.062	0.0504	0.0601	0.058	0.0589	0.0505	–	0.05	0.0448	0.0634	0.0535	0.0521	0.0559	0.0532	0.0677	–
P104K	0.0349	–	0.02	–	–	–	0.05	0.0549	–	–	–	0.0592	–	–	–	–	–	–
P104C	0.0669	0.077	0.0555	0.0869	0.0681	0.0666	0.0731	0.0539	0.0312	0.0604	0.0584	–	0.0671	0.0606	0.0636	0.0601	0.0737	–
P104H	0.0668	0.0621	0.0481	0.0458	0.047	0.046	0.0568	–	0.0597	–	0.0637	–	0.0343	0.0694	0.0448	0.0491	0.0398	–
P104A	0.0615	–	0.0613	–	0.059	0.0752	0.0664	0.0694	–	–	–	–	–	0.0894	–	0.0689	–	–
P104N	0.0467	0.0491	–	–	0.0456	–	0.0478	–	–	–	0.0504	0.0328	–	0.0465	0.0412	0.0372	0.0641	–
P104S	0.0491	–	–	0.0499	0.0587	0.0446	0.0522	0.0399	–	0.0477	0.0546	–	0.0547	0.0563	–	0.0419	–	–
P104V	0.0621	0.0597	0.0546	–	0.0617	–	0.0686	–	0.0609	0.0624	0.0642	–	0.053	0.0637	–	0.0585	0.0587	0.0468
P104R	0.0586	0.056	0.0534	–	–	0.071	0.0466	–	0.0611	0.0536	0.078	0.0518	0.0544	0.0696	0.0523	0.053	0.0423	0.0598
G80W	0.0698	0.0922	0.0507	–	0.0578	0.0515	0.0619	0.067	0.0639	0.111	0.0685	–	0.0754	0.066	0.0616	–	0.0611	0.056
